Data from the supplement of paper PMC8728848.
This is one part of the list.

Key:
Test in all cases: glycan array binding signal (z-score within array); higher = stronger binding
Conditions in all cases: glycan notation: IUPAC condensed, linker removed
[1] = molecular target: Neu5Ac(a2-6)Gal(b1-4)GlcNAc(b1-2)Man(a1-3)[Man(a1-6)]Man(b1-4)GlcNAc(b1-4)GlcNAc
Outline: (§1)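 From the Consortium for Functional Glycomics database, 3228 arrays were curated, keeping only those whose protein sequence was available. Binding is given as a within-array Z-score averaged across arrays sharing a protein sequence and across linkers. Negative Z-scores can be read as non-binding.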

[2] = molecular target: Neu5Ac(a2-6)Gal(b1-4)GlcNAc(b1-2)Man(a1-3)[Neu5Ac(a2-3)Gal(b1-4)GlcNAc(b1-2)Man(a1-6)]Man(b1-4)GlcNAc(b1-4)GlcNAc
Outline: as §1

[3] = molecular target: Neu5Ac(a2-6)Gal(b1-4)GlcNAc(b1-2)Man(a1-3)[Neu5Ac(a2-6)Gal(b1-4)GlcNAc(b1-2)Man(a1-6)]Man(b1-4)GlcNAc(b1-4)GlcNAc
Outline: as §1

[4] = molecular target: Neu5Ac(a2-6)Gal(b1-4)GlcNAc(b1-2)Man(a1-3)[Neu5Ac(a2-6)Gal(b1-4)GlcNAc(b1-2)Man(a1-6)]Man(b1-4)GlcNAc(b1-4)[Fuc(a1-6)]GlcNAc
Outline: as §1

[5] = molecular target: Neu5Ac(a2-6)Gal(b1-4)GlcNAc(b1-2)Man(a1-6)Man(b1-4)GlcNAc(b1-4)GlcNAc
Outline: as §1

[6] = molecular target: Neu5Ac(a2-6)Gal(b1-4)GlcNAc(b1-2)Man(a1-6)[Gal(b1-4)GlcNAc(b1-2)Man(a1-3)]Man(b1-4)GlcNAc(b1-4)GlcNAc
Outline: as §1

[7] = molecular target: Neu5Ac(a2-6)Gal(b1-4)GlcNAc(b1-2)Man(a1-6)[GlcNAc(b1-2)Man(a1-3)]Man(b1-4)GlcNAc(b1-4)GlcNAc
Outline: as §1

[8] = molecular target: Neu5Ac(a2-6)Gal(b1-4)GlcNAc(b1-2)Man(a1-6)[Man(a1-3)]Man(b1-4)GlcNAc(b1-4)GlcNAc
Outline: as §1

[9] = molecular target: Neu5Ac(a2-6)Gal(b1-4)GlcNAc(b1-2)[Neu5Ac(a2-6)Gal(b1-4)GlcNAc(b1-4)]Man(a1-3)[GlcNAc(b1-4)][Neu5Ac(a2-6)Gal(b1-4)GlcNAc(b1-2)[Neu5Ac(a2-6)Gal(b1-4)GlcNAc(b1-6)]Man(a1-6)]Man(b1-4)GlcNAc(b1-4)GlcNAc
Outline: as §1

[10] = molecular target: Neu5Ac(a2-6)Gal(b1-4)GlcNAc(b1-2)[Neu5Ac(a2-6)Gal(b1-4)GlcNAc(b1-4)]Man(a1-3)[GlcNAc(b1-4)][Neu5Ac(a2-6)Gal(b1-4)GlcNAc(b1-4)Man(a1-6)]Man(b1-4)GlcNAc(b1-4)GlcNAc
Outline: as §1

[11] = molecular target: Neu5Ac(a2-6)Gal(b1-4)GlcNAc(b1-2)[Neu5Ac(a2-6)Gal(b1-4)GlcNAc(b1-6)]Man(a1-6)[Neu5Ac(a2-6)Gal(b1-4)GlcNAc(b1-2)Man(a1-3)][GlcNAc(b1-4)]Man(b1-4)GlcNAc(b1-4)GlcNAc
Outline: as §1

[12] = molecular target: Neu5Ac(a2-6)Gal(b1-4)GlcNAc(b1-3)Gal(b1-3)GlcNAc
Outline: as §1

[13] = molecular target: Neu5Ac(a2-6)Gal(b1-4)GlcNAc(b1-3)Gal(b1-4)GlcNAc
Outline: as §1

[14] = molecular target: Neu5Ac(a2-6)Gal(b1-4)GlcNAc(b1-3)Gal(b1-4)GlcNAc(b1-2)Man(a1-3)[Neu5Ac(a2-6)Gal(b1-4)GlcNAc(b1-3)Gal(b1-4)GlcNAc(b1-2)Man(a1-6)]GalNAc
Outline: as §1

[15] = molecular target: Neu5Ac(a2-6)Gal(b1-4)GlcNAc(b1-3)Gal(b1-4)GlcNAc(b1-3)Gal(b1-4)GlcNAc
Outline: as §1

[16] = molecular target: Neu5Ac(a2-6)Gal(b1-4)GlcNAc(b1-3)Gal(b1-4)GlcNAc(b1-3)Gal(b1-4)GlcNAc(b1-2)Man(a1-3)[Neu5Ac(a2-6)Gal(b1-4)GlcNAc(b1-3)Gal(b1-4)GlcNAc(b1-3)Gal(b1-4)GlcNAc(b1-2)Man(a1-6)]GalNAc
Outline: as §1

[17] = molecular target: Neu5Ac(a2-6)Gal(b1-4)GlcNAc(b1-3)Gal(b1-4)GlcNAc(b1-3)GalNAc
Outline: as §1

[18] = molecular target: Neu5Ac(a2-6)Gal(b1-4)GlcNAc(b1-3)Gal(b1-4)GlcNAc(b1-3)[Neu5Ac(a2-6)Gal(b1-4)GlcNAc(b1-3)Gal(b1-4)GlcNAc(b1-6)]GalNAc
Outline: as §1

[19] = molecular target: Neu5Ac(a2-6)Gal(b1-4)GlcNAc(b1-3)Gal(b1-4)GlcNAc(b1-6)[Gal(b1-3)]GalNAc
Outline: as §1

[20] = molecular target: Neu5Ac(a2-6)Gal(b1-4)GlcNAc(b1-3)Gal(b1-4)[Fuc(a1-3)]GlcNAc(b1-3)Gal(b1-4)[Fuc(a1-3)]GlcNAc
Outline: as §1

[21] = molecular target: Neu5Ac(a2-6)Gal(b1-4)GlcNAc(b1-3)GalNAc
Outline: as §1

[22] = molecular target: Neu5Ac(a2-6)Gal(b1-4)GlcNAc(b1-3)[Neu5Ac(a2-6)Gal(b1-4)GlcNAc(b1-6)]GalNAc
Outline: as §1

[23] = molecular target: Neu5Ac(a2-6)Gal(b1-4)GlcNAc(b1-6)GalNAc
Outline: as §1

[24] = molecular target: Neu5Ac(a2-6)Gal(b1-4)GlcNAc(b1-6)[Gal(b1-3)GlcNAc(b1-3)]Gal(b1-4)Glc
Outline: as §1

[25] = molecular target: Neu5Ac(a2-6)Gal(b1-4)GlcNAc(b1-6)[Gal(b1-3)]GalNAc
Outline: as §1

[26] = molecular target: Neu5Ac(a2-6)Gal(b1-4)GlcNAc6S
Outline: as §1

Neu5Ac(a2-6)GalNAc = molecular target: Neu5Ac(a2-6)GalNAc
Outline: as §1

[27] = molecular target: Neu5Ac(a2-6)GalNAc(b1-4)GlcNAc
Outline: as §1

[28] = molecular target: Neu5Ac(a2-6)GalNAc(b1-4)GlcNAc6S
Outline: as §1

[29] = molecular target: Neu5Ac(a2-6)GlcNAc(b1-4)GlcNAc
Outline: as §1

[30] = molecular target: Neu5Ac(a2-6)GlcNAc(b1-4)GlcNAc(b1-4)GlcNAc
Outline: as §1

B1: PfulAvr4 2 (Pseudocercospora fuligena) (protein)
chain: HHHHHHDYKDDDDKAKPIKPFACPPKDFTTTKCQGPVDCLYANPLSCLGYIQCVCDDDACSTATPYAKSCPTGLAWVEKLKRCDGIKKSACPKKMYEGS
[1]
  glycan array binding signal (z-score): -0.122
[2]
  glycan array binding signal (z-score): -0.075
[3]
  glycan array binding signal (z-score): -0.108
[4]
  glycan array binding signal (z-score): -0.193
[5]
  glycan array binding signal (z-score): -0.214
[6]
  glycan array binding signal (z-score): -0.34
[7]
  glycan array binding signal (z-score): -0.14
[8]
  glycan array binding signal (z-score): -0.119
[9]
  glycan array binding signal (z-score): -0.331
[10]
  glycan array binding signal (z-score): -0.269
[11]
  glycan array binding signal (z-score): -0.267
[12]
  glycan array binding signal (z-score): -0.344
[13]
  glycan array binding signal (z-score): -0.179
[14]
  glycan array binding signal (z-score): -0.204
[15]
  glycan array binding signal (z-score): -0.142
[16]
  glycan array binding signal (z-score): 0.29
[17]
  glycan array binding signal (z-score): -0.369
[18]
  glycan array binding signal (z-score): 0.595
[19]
  glycan array binding signal (z-score): -0.385
[20]
  glycan array binding signal (z-score): -0.159
[21]
  glycan array binding signal (z-score): 0.204
[22]
  glycan array binding signal (z-score): -0.185
[23]
  glycan array binding signal (z-score): -0.148
[24]
  glycan array binding signal (z-score): -0.283
[25]
  glycan array binding signal (z-score): -0.189
[26]
  glycan array binding signal (z-score): -0.248
Neu5Ac(a2-6)GalNAc
  glycan array binding signal (z-score): 0.086
[27]
  glycan array binding signal (z-score): -0.385
[28]
  glycan array binding signal (z-score): -0.323
[29]
  glycan array binding signal (z-score): -0.412
[30]
  glycan array binding signal (z-score): 3.75
